The results in this text go back to article PMC4336329 (PLoS ONE, 2015).

SMILES strings stand for the structures. In all, about 310,000 compounds went through this assay and about 2,200 (0.71%) showed an effect of 50% or more. Effects have a minus sign here. The list shows a part of the results.

The target in this assay is human ether-à-go-go-related gene (hERG) potassium channel (human, UniProt Q12809). The assay can be described thus: primary screen, population patch clamp on CHO cells stably expressing hERG.
Chain of human ether-à-go-go-related gene (hERG) potassium channel (Q12809 whole entry, looked up): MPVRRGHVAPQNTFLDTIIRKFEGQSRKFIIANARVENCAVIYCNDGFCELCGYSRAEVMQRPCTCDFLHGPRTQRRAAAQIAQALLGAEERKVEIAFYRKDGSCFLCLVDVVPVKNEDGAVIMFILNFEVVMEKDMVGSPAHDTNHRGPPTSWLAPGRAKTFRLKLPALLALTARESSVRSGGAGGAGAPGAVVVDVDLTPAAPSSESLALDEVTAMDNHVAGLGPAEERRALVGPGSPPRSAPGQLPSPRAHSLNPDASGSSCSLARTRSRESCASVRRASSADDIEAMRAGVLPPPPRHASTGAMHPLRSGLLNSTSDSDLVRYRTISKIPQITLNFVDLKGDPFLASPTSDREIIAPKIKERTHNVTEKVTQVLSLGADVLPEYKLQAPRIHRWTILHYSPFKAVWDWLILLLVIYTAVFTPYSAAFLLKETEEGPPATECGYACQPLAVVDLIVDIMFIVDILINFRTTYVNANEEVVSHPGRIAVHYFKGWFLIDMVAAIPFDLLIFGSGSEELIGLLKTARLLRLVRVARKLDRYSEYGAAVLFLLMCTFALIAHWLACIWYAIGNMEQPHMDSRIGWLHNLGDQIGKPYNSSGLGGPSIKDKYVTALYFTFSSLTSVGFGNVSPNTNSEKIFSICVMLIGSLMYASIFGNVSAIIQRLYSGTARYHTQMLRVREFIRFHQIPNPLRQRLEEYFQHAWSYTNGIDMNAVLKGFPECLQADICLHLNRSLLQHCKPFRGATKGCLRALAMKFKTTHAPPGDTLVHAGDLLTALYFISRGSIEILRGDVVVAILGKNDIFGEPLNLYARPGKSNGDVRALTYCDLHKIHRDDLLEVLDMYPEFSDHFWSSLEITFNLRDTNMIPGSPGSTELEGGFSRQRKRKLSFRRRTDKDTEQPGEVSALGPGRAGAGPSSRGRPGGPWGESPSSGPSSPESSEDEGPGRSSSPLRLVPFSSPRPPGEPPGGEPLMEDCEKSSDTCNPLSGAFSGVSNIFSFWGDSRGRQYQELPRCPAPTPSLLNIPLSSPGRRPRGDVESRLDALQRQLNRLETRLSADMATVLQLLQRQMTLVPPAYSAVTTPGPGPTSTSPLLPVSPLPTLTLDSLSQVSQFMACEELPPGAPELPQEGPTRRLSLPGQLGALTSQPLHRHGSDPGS
On to `NS(=O)(=O)c1ccc(Sc2ccc3ccccc3c2)nc1`, for which the “hERG current change (%, negative = inhibition) at 1uM” value was 6.5%. To `Nc1c(C(=O)Nc2ccc(F)cc2)nnn1-c1cccc(C(F)(F)F)c1` belongs 12.9%; to `Cc1ccc(C(C)C)c(OCC#CCN2CCCC2)c1.O=C(O)C(=O)O`, 7.15%; to `CC(C)CC1c2[nH]c3ccccc3c2CCN1C(=O)CCC(=O)N(C)C` (centres unmarked), 15%. Consider `Cc1ccccc1C(=O)O/N=C(\N)c1ccncc1`, for which the “hERG current change (%, negative = inhibition) at 1uM” value came to 16.2%. The result for `C/C(=N\NC(=S)Nc1ccccc1C)c1ccc(O)cc1` reads 4.36%; that for `Cn1c(SCc2ccccc2)nnc1-c1cccs1`, 9.3%. On to `COc1cccc(-c2nc(N3CCCC3)c3ccccc3n2)c1O`, for which the “hERG current change (%, negative = inhibition) at 1uM” value is recorded as 5.97%. To `Cn1c(NC(=O)CCc2ccccc2)cc(=O)n(C)c1=O` belongs 6.58%.

On to `CCC(C)NC(=O)CCC(=O)Nc1ccc2nc(N3CC(C)CC(C)C3)cc(C)c2c1` (centres unmarked), for which the “hERG current change (%, negative = inhibition) at 1uM” value is given as -1.08%. The result for `CCOc1ccc(N2CC(O)=C(c3nc4ccccc4c(=O)[nH]3)C2=N)cc1` reads 13%. To `CCCNC(=O)N1[C@H]2CC[C@@H]1C(C(=O)OC)=C(c1ccc(F)cc1F)C2` belongs 14.9%. To `O=[N+]([O-])c1ccc2c(c1)/C(=N\O)c1ccccc1-2` belongs 18.4%; to `O=C(CN1c2ccccc2S(=O)(=O)c2ccccc21)NCc1ccccc1`, 12.5%. Turning to `CCOC(=O)/C=C/c1cnn(-c2ccccc2)c1`, the “hERG current change (%, negative = inhibition) at 1uM” value was found to be 12.4%.

Turning to `O=C(Nc1ccc(NC(=O)c2ccco2)cc1)c1ccc2c(c1)OCO2`, the “hERG current change (%, negative = inhibition) at 1uM” value is 11.7%. The result for `O=C(CC1(O)C(=O)N(C/C=C/c2ccccc2)c2ccccc21)c1ccccn1` (centres unmarked) reads 6.38%; that for `Cc1ccc(NC(=O)CSc2nnc(C3CCCCC3)n2N)cc1F`, 2.43%.

Regarding `Cc1ccc(C)c(OCCn2cc(/C=C(/C#N)C(=O)NCC3CCCO3)c3ccccc32)c1` (centres unmarked), the “hERG current change (%, negative = inhibition) at 1uM” value is recorded as 16.5%. On to `COc1ccc(C(CC(=O)NCC(OC)OC)NS(=O)(=O)c2ccc(Cl)cc2)cc1` (centres unmarked), for which the “hERG current change (%, negative = inhibition) at 1uM” value was 8.3%.

In the case of `O=C(CSc1nc(-c2ccco2)cc(C(F)(F)F)n1)N1CCc2ccccc2C1`, the “hERG current change (%, negative = inhibition) at 1uM” value was found to be 7.98%.

For `Cc1nn(-c2ccc(Br)cc2)c(=O)c2ccccc12`, the “hERG current change (%, negative = inhibition) at 1uM” value worked out at 14.3%. To `COc1cc(NC(=O)C2=COCCO2)c(OC)cc1Cl` belongs 14.1%. The result for `COc1ccc(NS(=O)(=O)c2cccc3nonc23)c(OC)c1` reads -1.12%; that for `CN(C)S(=O)(=O)c1ccc(NC(=O)c2ccc(Br)o2)cc1`, -0.166%. Regarding `CN(CCCCN1CCOCC1)Cc1nc(-c2ccc3c(c2)OCO3)no1`, the “hERG current change (%, negative = inhibition) at 1uM” value worked out at 1.64%. On to `O=C(CCn1c(=O)[nH]c2ccsc2c1=O)N1CCN(Cc2ccc3c(c2)OCO3)CC1`, for which the “hERG current change (%, negative = inhibition) at 1uM” value was -2.97%. `CCOC(=O)c1sc(=NC(=O)c2ccc(Br)cc2)n(C)c1C`: the “hERG current change (%, negative = inhibition) at 1uM” value was 11.3%. With `CN(Cc1nc(-c2ccc(Cl)cc2)no1)C(=O)c1ccc2c(c1)OCO2`, the “hERG current change (%, negative = inhibition) at 1uM” value was 3.99%. To `Cc1c(C(=O)Nc2ccc(Cl)cn2)oc2ccccc12` belongs 8.02%; to `O=C(/C(=C/c1ccc(Cl)cc1)c1nc2ccccc2[nH]1)c1cccs1`, 6.05%. Turning to `Cc1ccc(NC(=O)c2nc[nH]c2C(=O)NCc2ccccc2)cc1`, the “hERG current change (%, negative = inhibition) at 1uM” value is recorded as 8.32%. To `Cn1ncc(Cl)c1C(=O)NCC1CCCO1` (centres unmarked) belongs 3.38%. Turning to `Cc1cc(OCC(=O)N2CCOCC2)ccc1[N+](=O)[O-]`, the “hERG current change (%, negative = inhibition) at 1uM” value was 1.71%. For the compound `O=C(NNC(=S)NCc1ccccc1)c1ccc(Br)cc1`, the “hERG current change (%, negative = inhibition) at 1uM” value is 11.8%.

As for `O=C(COc1ccc2cc(Br)ccc2c1)N1CCCC1`, the “hERG current change (%, negative = inhibition) at 1uM” value is given as -16.6%. To `O=Cc1cn(CCC(=O)O)nc1-c1cc2ccccc2o1` belongs 0.996%; to `CCc1ccc(NC(=O)Nc2c(C)n(C)n(-c3ccccc3)c2=O)cc1`, 17.2%. As to `CCOC(=O)C1(CCc2ccccc2)CCN(C(=O)c2occc2C)CC1`, the “hERG current change (%, negative = inhibition) at 1uM” value is -9.67%. For `CCOCC(=O)Nc1nnc(Cc2ccc(OC)c(OC)c2)s1`, the “hERG current change (%, negative = inhibition) at 1uM” value is 6.01%. To `COc1ccc(S(=O)(=O)N(C)C)cc1NC(=O)CSc1ncccn1` belongs 9.6%; to `COC(=O)Cn1c2ccc(OC)cc2c2nc3ccccc3nc21`, 6.33%. The result for `COc1ccc(/C=N/n2c(-c3cc(C)[nH]n3)n[nH]c2=S)cc1OC` reads 12.8%.

Take `O=C(/C=C/c1cccnc1)c1ccc([N+](=O)[O-])cc1`: the “hERG current change (%, negative = inhibition) at 1uM” value amounted to 7.64%.

As for `Cc1cc(NC(=O)CSCC(=O)N(C)Cc2ccc(Cl)cc2Cl)no1`, the “hERG current change (%, negative = inhibition) at 1uM” value was 14.3%. The result for `COc1cc(/C=C2\NC(=S)N(C)C2=O)ccc1O` reads 19.7%; that for `COc1ccc(C(=O)NC(=S)NCc2cccnc2)cc1[N+](=O)[O-]`, 9.75%.

Consider `CN1CCN(CCOc2ccc(Cl)c(Cl)c2)CC1.O=C(O)C(=O)O`, for which the “hERG current change (%, negative = inhibition) at 1uM” value turned out to be 3.94%. To `Cn1cnnc1SCC(=O)c1c[nH]c2ccccc12` belongs 11.4%; to `COc1ccc(-c2ccc(S(=O)(=O)N3CCOCC3)cc2)cc1`, 8.16%; to `O=C(NC1CC(=O)N(c2ccc(Cl)cc2)C1)N1CCN(C(=O)c2ccco2)CC1` (centres unmarked), -49.8%. Take `O=S(=O)(NCc1ccccc1)c1ccc(-n2cccn2)cc1`: the “hERG current change (%, negative = inhibition) at 1uM” value worked out at 7.51%. For `CCOCCCNC(=O)c1cn(CC)c2ccc(S(=O)(=O)N3CCOCC3)cc2c1=O`, the “hERG current change (%, negative = inhibition) at 1uM” value is given as 14.7%. To `Cc1cc(C)nc(SCc2ccc(C(=O)N/N=C/c3cccc(O)c3O)cc2)n1` belongs 10.8%; to `CCOc1cc(N2CCOCC2)c(OCC)cc1NC(=O)COc1ncnc2ccccc12`, 1.42%. On to `Cc1ccc(CSc2nnc([C@@H]3CCCN3C(=O)OC(C)(C)C)o2)cc1`, for which the “hERG current change (%, negative = inhibition) at 1uM” value is reported as -0.783%. Consider `CN1CCc2c(c(N3CCCCC3)nc3n[nH]c(N)c23)C1`, for which the “hERG current change (%, negative = inhibition) at 1uM” value was -2.25%. The result for `O=C(CN1CCN(S(=O)(=O)c2ccc(F)c(Cl)c2)CC1)N1CCc2ccccc21` reads 2.34%; that for `CN1C(=O)c2cccc3c(Cl)ccc(c23)C1=O`, 7.9%; that for `COc1ccc(OC)c2sc(NC(=O)c3ccc(S(=O)(=O)N4CCOCC4)cc3)nc12`, 10.7%. On to `CCN1C(=O)[C@H]2[C@@H](c3ccc(C)cc3)N3C(=O)N(c4ccc(OC)cc4)C(=O)[C@@]3(Cc3ccc(Cl)cc3)[C@H]2C1=O`, for which the “hERG current change (%, negative = inhibition) at 1uM” value was 10.7%.

In the case of `CCOc1c2ccc(C(=O)NCc3ccc(OC)cc3)cc2nn1CCOC`, the “hERG current change (%, negative = inhibition) at 1uM” value turned out to be 10.4%. For the compound `COc1ccc(/C=N/NC(=O)C2CCN(c3ncc(C(F)(F)F)cc3Cl)CC2)cc1`, the “hERG current change (%, negative = inhibition) at 1uM” value is given as -7.63%. In the case of `O=C(CN1CCN(S(=O)(=O)c2ccccc2F)CC1)NCC1(N2CCOCC2)CCCCC1`, the “hERG current change (%, negative = inhibition) at 1uM” value came to 1.43%. In the case of `COc1ccc(/C=C(\NC(=O)c2cccs2)C(=O)N2CCOCC2)cc1OC`, the “hERG current change (%, negative = inhibition) at 1uM” value was 9.57%. For `CCN(CC)CCN(Cc1cc2ccc(C)cc2[nH]c1=O)C(=O)Nc1ccc(Cl)cc1`, the “hERG current change (%, negative = inhibition) at 1uM” value was -78.4%. Regarding `N#CCCN(C(=O)COC(=O)COc1ccccc1Cc1ccccc1)c1ccccc1`, the “hERG current change (%, negative = inhibition) at 1uM” value is listed as 18.3%. Consider `CCOC(=O)c1nnsc1NC(=O)Nc1ccc(OC)cc1`, for which the “hERG current change (%, negative = inhibition) at 1uM” value came to 17.8%. To `Cc1cccc2nc(Cn3c(=O)n(CCC(=O)NCc4ccco4)c(=O)c4sccc43)cc(=O)n12` belongs 1.37%; to `CN(C)S(=O)(=O)c1ccc(NC(=O)C2CCCN(C(=O)c3ccc(Cl)cc3)C2)cc1` (centres unmarked), 5.91%; to `CCCn1c(=N)c(C(=O)NC2CCCC2)cc2c(=O)n3cccc(C)c3nc21`, -84.1%. The result for `CC(C)N(C)CCOC(=O)/C=C/c1ccccc1.Cl` reads 12%; that for `COc1cccc(CN2CCNC(=O)C2CC(=O)NC2CCOCC2)c1OC` (centres unmarked), 20%. For `Cn1c(SCc2cccc(F)c2)nnc1-c1cnccn1`, the “hERG current change (%, negative = inhibition) at 1uM” value worked out at 10.4%. The result for `CN(C)/C=N/c1sc2c(c1C#N)CCCC2` reads 11.9%; that for `CCC(C)(C)n1nnnc1C(c1cccs1)N1CC=C(c2ccc(F)cc2)CC1` (centres unmarked), 7.1%; that for `O=C(Nc1ccnc(-c2ccncc2)n1)c1ccccc1Cl`, 10%. The result for `Cc1ccc2nc(COc3ccc(Cl)cc3)cc(=O)n2c1` reads 4.06%; that for `Cc1ccc(-c2nc3ccccc3c(=O)n2-c2ncccc2C)cc1`, 0.712%. Regarding `Cc1ccc(C(=O)N2CCN(S(=O)(=O)c3ccc(C)cc3)CC2)cc1`, the “hERG current change (%, negative = inhibition) at 1uM” value is recorded as -0.09%. To `COc1ccccc1N(CC(=O)Nc1ccccc1)S(=O)(=O)c1cccs1` belongs 8.95%; to `O=C(NCCN1CCOCC1)c1ccc(Cl)nc1Cl`, -1.85%. On to `COc1ccc(CCNC(=O)C2CC(=O)N(c3ccc(Br)cc3)C2)cc1OC` (centres unmarked), for which the “hERG current change (%, negative = inhibition) at 1uM” value is listed as -10.5%. Take `CCOC(=O)CN(C(=O)CSc1nnc(COc2ccc(OC)cc2)n1C)c1ccccc1`: the “hERG current change (%, negative = inhibition) at 1uM” value was determined as 15.7%. To `Cc1ccc(C(=O)Nc2cccnc2N2CCN(C)CC2)cc1` belongs 7.96%; to `CCCC(=O)Nc1cc(Cl)ccc1C`, 12.5%. For the compound `C[C@]12CCC(=O)C=C1CCC1C2CC[C@@]2(C)C1CC[C@@]2(O)CC#N` (some centres unmarked), the “hERG current change (%, negative = inhibition) at 1uM” value is listed as -25.8%. For `COc1ccc(-c2nnc(SCC(=O)NC3CCCCC3)o2)cc1`, the “hERG current change (%, negative = inhibition) at 1uM” value was 3.98%. To `Cc1cc(Nc2ccccc2)n(C(=O)c2ccccc2)n1` belongs 4.15%.
